Source: PubChem BioAssay (NCI)
Some structures have more than one record in an assay (separate samples or runs), and their calls can disagree.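 Treatment: one concentration, 48 hours, 96-well format. Scoring: percent growth, with anything below 10 considered active.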 A number of entries come with more than one value. The other results are left out here. The source may hold further records. These are repeated runs of one drug, at the concentration stated with the values; one value stands for one run. Brackets with × say how often a value occurs here.

System: BT-549 breast
Test: NCI-60 one-dose screen, 48 h (100 = growth as untreated, 0 = no growth, -100 = all killed)
Conditions: 0.25 µM

COc1cccc2c1C(=O)c1c(O)c3c(c(O)c1C2=O)C[C@@](O)(C(=O)CO)C[C@@H]3OC1CC(N)C(O)C(C)O1 (stereo not given in full)
growth (runs of 2008): inactive: 43.1, 62.9, 28.5, 60.6, 47.3, 50.4, 62, 61.2, 48.6, 70.1, 12.8, 45.3, 42.4, 34.2, 48.1, 11.2, 25.6, 35.5, 36.4, 23.3, 35, 40.6, 26.9, 45.6, 112, 51.4, 27, 12.5, 20.8, 16.2, 10.9, 45.4, 11.5, 33, 47.4, 58.6, 42.3, 67.4, 25.9, 53.8, 50.1, 66.9, 44.4, 36, 27.1, 35.6, 43.4, 68.4, 56.4, 54.4% and active: -14.7%, -6.23%, 9.69% | growth (runs of 2009): inactive: 46.7, 51.9, 48.3 (3×), 62.6, 57.7, 67.9, 41.7, 59.3, 59.9 (2×), 42.4, 57.4, 49.1, 59.6, 73.2, 54, 63.7, 37.4, 36.5, 43.6, 69.6, 50.3, 66, 44.2, 60, 51.2, 40.6, 10.4, 29.6, 50.8, 39.7, 52.5, 63.3, 61.8, 81.3, 47.3 (2×), 43.7, 54.2, 79, 53.9, 58.1, 40.2, 51.3, 42, 58.6, 48.5, 18.9, 64, 39.4, 61.5, 53.1, 62.7, 40, 61.7, 78.4, 45.6% and active: 6.38%, -2.31%, 8.75% | growth (runs of 2010): inactive: 40.6, 65.1, 63.1 (2×), 56.2, 54.4, 55.9, 58.1, 75, 67.2, 65.9, 63.7, 68, 70.4, 67.9, 57.4 (2×), 52.5, 73.7, 54.6, 60.3, 73.2, 59.9, 82, 56.4, 89.4, 49.3 (2×), 54.7, 44.5, 53, 50.9, 52.8, 45.1, 61.8, 52.6, 72.7, 65.3 (2×), 58.6, 57.6, 56.5, 55.5, 59, 51.5, 61.1, 58.3% | growth (runs of 2011): inactive: 69.9, 63.3, 41.2, 50.3, 64.6, 56.5, 49.6, 56.9, 65.9, 63.2, 57.1, 62.3, 62.1, 69.4, 51.7, 65.6, 67.5 (2×), 65.7, 68.8, 71.6, 66.9, 75.2, 71.4, 74, 64, 66.4, 45.5, 62.6, 61.1, 63.6, 54.6, 55.4, 56, 43.3, 58.8, 47.1, 51.9, 49.2, 21.5, 19.6, 30.2, 41.7, 26.4, 14.2, 35.4, 60.3, 50.9, 55.1, 58.5, 49.1, 44, 42.9, 53, 45, 64.7, 54.5% | growth (runs of 2012): inactive: 61.8, 40.4, 51.2, 44.4, 53.8, 55.8, 51.3, 65.3 (2×), 58.3, 40.2, 47.3, 46.2, 39.8, 49, 38.2, 45, 36.9, 49.7, 45.5, 31.4, 35.7, 35.9, 34.3, 43.2, 52.4, 56.8, 56.7, 56.4, 58.6, 52.3, 49.8, 43.7, 49.2, 53.6, 48.6, 47, 62.3, 65.5, 43.5, 76.2, 62.2, 58.2, 74.8, 78.5, 65.4, 73.1, 74.5, 66.7, 69, 86, 79.7, 86.4, 80.8, 83.6, 75.7, 64, 69.5, 68.8, 64.5, 74.4, 30, 66.2, 68.5, 51.9, 55.7, 60.7, 61.1, 45.9% | growth (runs of 2013): inactive: 54, 53.7, 61.8, 66.6, 67.6, 65.4, 61.2, 72.4, 60.4, 66.7, 76, 66.2, 64.1, 70.7, 61.7, 74.7, 70, 70.1, 69.6, 68.3, 60.1, 63, 41.6, 83.4, 78.5, 80.1, 76.4, 80.9, 68.1, 71.9, 57.3, 72, 85.9, 68.7 (2×), 78.8, 84.1, 73.9, 69.8, 58.3, 69.7 (3×), 62.6, 62.9, 65.2, 67.2, 57.4, 65.1, 74.5, 68.4, 75.2, 64.6, 72.1, 73.6, 79.3, 71, 81.1, 55.5, 65, 56.1, 49.7, 59, 62.3, 71.2, 40.5, 56.2 (2×), 38.5, 34.8, 35.5, 29.9% and active: -3.04% | growth (runs of 2014): inactive: 40.7, 32.3, 35.3, 20.5, 48.2, 28.6, 40.4, 26.2, 36.6, 81.9, 56.4, 58.8, 29.7, 55.1, 53.8, 45.9, 63.7, 61, 56.9, 57.4 (2×), 68.6 (2×), 75.7, 55.3, 56.3 (2×), 57.1, 55.6, 57.8, 53.2, 52.8, 66.9, 38, 57, 51.2, 54.4, 53.1 (3×), 55.9 (3×), 52.6 (2×), 57.2, 56.5, 50.4, 49.5, 53.9, 51.4, 56.1, 58.1, 52.9, 58.7 (2×), 53.5, 51.1, 54.2, 47 (2×), 45.8, 67.6, 59.6, 60.9, 59.8, 52.7% and active: 9.99% | growth (runs of 2015): inactive: 54.5 (3×), 44.7, 37.6 (2×), 35.6, 46.2, 56.7, 52.7, 57 (2×), 43.5 (2×), 64.8, 60.3 (3×), 65.2, 69.2, 56.1, 51.4 (2×), 51.1, 48.3 (2×), 44.4, 41.1 (2×), 54.3, 58.6, 66.3, 75.1, 69.4, 42.8, 52 (2×), 47 (2×), 51.2, 57.8, 53.8, 45.9, 55.2 (2×), 60.6, 53.7, 44, 56.4, 54.8, 42, 50.4, 63.1, 45.7, 45.4, 54.2, 61.2, 78.5, 62.8, 55.8, 38.9, 49.8, 62, 53.9, 57.4, 59.3, 58.1, 58.4, 57.9, 60.1 (2×), 67.8, 58.3, 43.6, 63.2 (2×), 61.7, 39.4, 64.6, 67.3% | growth (runs of 2016): inactive: 58.5, 58.3, 60.8, 59.8, 68, 54, 60.9, 61.6 (2×), 60.4, 65.4, 56.7 (3×), 62.5, 35.9, 38.9, 50.4, 57, 57.6, 43.9, 52, 46.3, 37.9, 46.7, 43.3, 43.1, 39.4, 44.2, 41.7, 46.6, 45.3, 45.2, 45.5, 48.2, 62.6, 62.9, 69.6 (2×), 81, 63 (2×), 75, 74.7, 59.2, 66.3, 70.2, 72.7, 39.5, 54.7, 51.5, 65.1, 50.2, 63.7, 62.3, 69.3, 76, 67.9, 71.3, 60.6, 72.2, 62.4, 75.5, 76.5, 81.8, 64.6, 57.2, 53.5, 61.1, 52.6, 61.2, 56.8, 57.1, 58.4, 66.4, 65.6, 73.7% | growth (runs of 2017): inactive: 62.8, 60.8, 68.2, 58.7 (2×), 59.3 (2×), 46.6, 57.2 (2×), 45.9, 58 (3×), 44.8, 57.6, 52, 46.7, 52.8, 63.7, 42.4 (2×), 49.8, 43.9, 47.3, 45, 57.7, 44.2, 54.2, 43.2, 60.2, 46.4, 66.3 (2×), 54, 58.3, 55.9, 61.1, 49.7, 50.7, 53.9, 62.3, 49.1, 55.5 (2×), 43.3, 47, 46.9, 56, 49.3, 54.4 (5×), 56.7, 50.9, 45.7, 45.4, 80, 41.7, 53, 60.9, 65.2, 64.1, 49, 56.2, 62.4, 54.6, 61.7, 55.3 (2×), 60, 51.6, 65, 66, 58.1, 51.1, 49.9, 53.1, 48.1% | growth (runs of 2018): inactive: 63.7 (2×), 54, 55.3 (2×), 57.7 (2×), 58.8, 60.2 (2×), 60.1 (3×), 46.9, 49.8, 54.2, 53.8 (2×), 59.9, 54.5, 55.2 (2×), 61.8, 54.6, 50.3, 52.5 (2×), 68.5, 66.7, 59.8, 65.3, 66.5, 56.5, 65.7, 58.5 (2×), 65.1, 67, 61.9, 60, 62.2, 62, 62.7, 61.2 (2×), 56.2, 55.8, 54.3 (2×), 41.6, 49.4, 62.1, 43.6, 48.1, 51.4% | growth (runs of 2019): inactive: 51.4, 40.4, 39.2, 47.1, 56.3, 44.8 (2×), 46.6, 43.2, 38.4, 42, 48 (3×), 37.6, 35.5, 45.1, 53.4, 40.7, 67.5, 62.5, 63.7, 53.6 (2×), 58, 50.1, 41.2, 42.3, 47.6, 47, 44.2, 45.9, 43.4, 45.5, 40.9, 51.3, 43.1, 65.4, 55.8, 46.9, 45.2, 47.5, 52.5, 47.9, 49.6, 55.4% | growth (runs of 2020): inactive: 51.7, 61.4, 58, 58.2, 58.1, 50.2, 40.9, 45.8, 43.9, 47.4, 54.3, 57.1, 52.7, 62.6, 48.6, 50.7, 54.8, 55.5, 51.2, 57.8, 56, 68.1% | growth (runs of 2021): inactive: 51.7, 50.7 (2×), 55.8, 69.3, 63.6, 74.4, 50.2, 52.9, 51.5, 49.2, 61.8, 69.4, 71.1, 52.5, 46.1 (2×), 38.3, 42.2, 39.4, 36.5, 29.5, 41.5, 40.2, 34.8, 40.9, 50.1, 46.7, 37 (2×), 40.5, 37.8, 35.6, 53.9, 51.2, 42.3, 71.4, 36.6, 52.6, 36, 43.8, 31.9, 20.5, 37.6, 45.4, 24.2, 30.3, 48, 33.8% | growth (runs of 2022): active: 8.69, 9.02, -19, 4.07% and inactive: 38.9, 41.9, 11, 16.8, 41.7, 59, 46.6, 51.5, 41.2, 41.3, 30.4, 33.1, 32.9, 59.9, 82.2, 65.7, 69, 77.9, 38.1, 35.6, 36.6%
